Variants at the background level are over-represented here.
B1: TPR 5TU (parent)
chain: GGAUCUUCUCGAUCUAACAAAAAAGACAAAUCUGCCACAAAGCUUGAGAGCAUCUUCGGAUGCAGAGGCGGCAGCCUUCGGUGGCGCGAUAGCGCCAACGUUCUCAACUAUGACACGCAAAACGCGUGCUCCGUUGAAUGGAGUUUAUCAUG

Variants of: B1
Assay: polymerase ribozyme fitness, log enrichment relative to wild type (log ratio); higher = more active; in vitro selection for triplet polymerase activity
Outline: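 A heterodimeric triplet polymerase ribozyme had each of its subunits mutagenized by PCR into a library, which was transcribed. One round of in vitro selection, done in triplicate, annealed each library with a biotinylated primer, its partner subunit and triplets, then incubated it frozen at −7 °C before gel excision of extended constructs, streptavidin-bead capture and RT-PCR. Fitness is the logarithm of genotype enrichment relative to wild-type enrichment, based on Illumina sequencing of inputs and outputs and inverse-variance-weighted replicate averages. A base-2 logarithm is used, and genotypes were kept only with ≥10 input reads and ≥1 read per output.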

Variant	polymerase ribozyme fitness (log ratio)
U111G A150G G152A	≤ -4.2
G94C C96U A119G C125U C149G	≤ -4.2
G136C U144G C149U	≤ -4.2
G92A C93G U102C	≤ -4.2
G94A A97U C116A C129A	≤ -4.2
U104G A142C A150C	≤ -4.2
A91U A115G	≤ -4.2
G92C A119G U134C C149A	≤ -4.2
C93U C96U A113C G143A	≤ -4.2
G100A A147U	≤ -4.2
A107U U111G A121U U134C	≤ -4.2
G94C C114A U127A	≤ -4.2
G92C A97G U104A A119U A120U U144G	≤ -4.2
U90C G92A C105G	≤ -4.2
A106G G141C A150G	≤ -4.2
C105G G112C U134A A147C	≤ -4.2
A107C C131G	≤ -4.2
U90C C131A	≤ -4.2
C123G G140A A150G	≤ -4.2
C93U A107G C118G	≤ -4.2
A97C A107G	≤ -4.2
A107C C125G	≤ -4.2
U90A U144G	≤ -4.2

Variant	polymerase ribozyme fitness (log ratio)
G133U U146G	≤ -4.2
C93A C123U A137U	≤ -4.2
G94C A115G A137C	≤ -4.2
G92C U151G	≤ -4.2
C105G G117U G128U	≤ -4.2
G92C C114A C118U C123G	≤ -4.2
G94C C131G C149A	≤ -4.2
U90C A137C	≤ -4.2
A97C C108G A120C U135G	≤ -4.2
C93G U102G A107G	≤ -4.2
A91C C95U	≤ -4.2
A91U G133A	≤ -4.2
C103G A107U A115C A122G C132A G143C	≤ -4.2
C99G U139C A142C	≤ -4.2
A91G G136C	≤ -4.2
A91C A97G A107U	≤ -4.2
C108G A120G	≤ -4.2
C108G G128U	≤ -4.2
G100U C116G U145G G152A	≤ -4.2
A98G U104C A110G A119U U130A	≤ -4.2
G94C A107U C108A	≤ -4.2
C93U C116G A150G	≤ -4.2
U111C A115C	≤ -4.2

Variant	polymerase ribozyme fitness (log ratio)
C99U C103A U127G G141A	≤ -4.2
G94C C116U A121U G140C	≤ -4.2
C95A C99U A137C U151G	≤ -4.2
C96A A98C A142C G143U	≤ -4.2
A91U C132U G140U	≤ -4.2
U90C C114U	≤ -4.2
U90G C96U A113G	≤ -4.2
U101C U151C	≤ -4.2
G92C G143C U148G	≤ -4.2
A107U U130G U148A	≤ -4.2
U90A C93A A107G G143C	≤ -4.2
C96U U127A	≤ -4.2
C93G G140C G143C	≤ -4.2
C129G U146G	≤ -4.2
A98U G128U G140C	≤ -4.2
A91U C93A G140A	≤ -4.2
C93A C95U A115U A147U	≤ -4.2
G94U G140C U151G	≤ -4.2
U90G C95G A97G C105U G152U	≤ -4.2
C108G	≤ -4.2
C108A	≤ -4.2
C93A C99G U127C	≤ -4.2
G141C A150C	≤ -4.2

Variant	polymerase ribozyme fitness (log ratio)
C93G A115U	≤ -4.2
U90G C93U	≤ -4.2
G100A C149A	≤ -4.2
C93G C116G G141U U144A	≤ -4.2
C93G G100A A110U	≤ -4.2
A91C C103A A142G	≤ -4.2
A91C A120U	≤ -4.2
C123U A147C A150C	≤ -4.2
U139A A150G	≤ -4.2
U90C C105U G141A	≤ -4.2
G92A C118G G133U G136A	≤ -4.2
U101A A110C A119G	≤ -4.2
G117U U139A	≤ -4.2
A142C U151A	≤ -4.2
C96A A106U G140C	≤ -4.2
G133A U144A A147C	≤ -4.2
C93G A107U A138U	≤ -4.2
C108A C116A	≤ -4.2
A89U G94U C108G C118U A120C A122C A137C	≤ -4.2
A91C C99G A106U C125U U139C U146C	≤ -4.2
U90G G92U	≤ -4.2
C93A C118G A142U	≤ -4.2
C93U C105U A113C U148C	≤ -4.2

Variant	polymerase ribozyme fitness (log ratio)
A137C U139A	≤ -4.2
A91C A142G	≤ -4.2
C93G C132G U139G	≤ -4.2
U90G G126C U127A	≤ -4.2
C93U C129U A142C U146C	≤ -4.2
A107U C118A U145G U148G A150G	≤ -4.2
C93A A106G A107U C114G U148C	≤ -4.2
C96U G100A U139C	≤ -4.2
C93G G141C U144A	≤ -4.2
G143C C149G	≤ -4.2
G100A A107U A113U	≤ -4.2
A91C C131A C149G	≤ -4.2
C93A U111G C118G	≤ -4.2
A91U G100A U135G	≤ -4.2
C123U G133A	≤ -4.2
A107C A142G	≤ -4.2
G92C U127G U145A A150C	≤ -4.2
G92A A147G	≤ -4.2
A107C A121G G126A C132G U135C	≤ -4.2
G133U G140U U144C	≤ -4.2
C93A A110C	≤ -4.2
